Assay results published in the supplement of paper PMC10338343.
± gives the standard deviation. Only a part is listed here, and it is no random draw.

test system: MIWI (PIWIL1) piRISC loaded with piRNA #1 (30 nt); assay: pre-steady-state target cleavage rate (min^-1); MIWI and MILI are mouse PIWI proteins and EfPiwi is from a freshwater sponge; tags in brackets are library labels; higher = faster piRNA-guided slicing of the target; settings: guide: piRNA #1 5'p-UGAGGUAGUAGGUUGUAUAGUAUCCAGAGG; auxiliary factor: 500 nM mouse GTSF1
Method in brief: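 A transcribed, DNA-blocked target RNA library […] was incubated at 33 °C for 0–8 or 0–960 min with 1 nM active affinity-purified piRISC carrying one synthetic guide, in HEPES–potassium acetate buffer with or without 500 nM GTSF1 partner protein. Uncleaved targets were then sequenced and normalised to depth and to weakly complementary targets. Data from three trials were pooled, with k3 capped at 0.0001 min^-1, and a burst-and-steady-state fit yielded the pre-steady-state cleavage rate.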
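Also: 1 nM active piRISC with 0.1 nM target library at 33 °C single turnover.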

Point of comparison: GGAGACCUAUCUAUUCAACCUUCUACCUCA, “pre-steady-state target cleavage rate” value 0.0463 ± 0.0082. Against it:
- GGAGACCUAACUAUAGUACCUACUACCUCA — within error, 0.0662 ± 0.024
- GGAGACGUACUAUACAACCUACUACCUCA — higher, 1.67 ± 0.12
- GCUCUGGAUACUAUACAACCUAGAACCUCA — higher, 0.252 ± 0.038
- GGAGACCAUACUAUUCAUCCUACUACCUCA — higher, 0.841 ± 0.068
- GGAGACCUUAGUAUACAACCUACUACCUGA — higher, 0.195 ± 0.03
- GGAGACCUAAGUAUACAACCUACAACCUCA — lower, 0.00887 ± 0.0027
- GGAGACGAUACUAUACAUCCUACAACCUCA — higher, 0.984 ± 0.063
- GGAGACGACUACUAUACAACCUACUACCUCA — higher, 1.5 ± 0.094
- GCUCUGGAUUCUAUACAUCCUACUACCUCA — higher, 1.31 ± 0.082
- GGAGACCAUACUAUACAACCUUACUACCUCA — lower, 0.00418 ± 0.0022
- GGAGAGCUUACUAUACAACCUACUACCUCA — higher, 1.51 ± 0.11
- GGAGACCUUACUAUUCAACCUACUAGCUCA — higher, 0.424 ± 0.036
- GGAGACCUAUCUUUACAACGUACUACCUCA — lower, 0.00639 ± 0.0027
- GGAGACGAUACUAUACAACCUACUACCUA — higher, 0.851 ± 0.084
- GGAGACCUAACUAUACAACCUACUACAUCA — higher, 0.847 ± 0.057
- GGAGACCUUACUUUACAACCUACUACCUCA — higher, 1.02 ± 0.086
- GGAGACGUUACUAUACAACCUUCUACCUCA — higher, 0.622 ± 0.036
- GGAGACCUAACUAUACAACGUACUACCUGA — within error, 0.0714 ± 0.019
- GCCUCUGGAUACUAUACAACCUACUACCUCA — higher, 1.89 ± 0.12
- GGACUGGAUACUAUACAACGUACUUCCUCA — higher, 0.209 ± 0.034
- GGACUGCAUACUAUACAACCUUCUACCUCA — higher, 0.58 ± 0.041
- GGAGACGAUACUAUACAACCUACUACCUACA — higher, 1.2 ± 0.077
- CCUCUGGAUACUUUACAACCUACAACCUCA — higher, 1.34 ± 0.1
- GGAGACCUAUCUAUACAUCCUACUACCACA — higher, 0.249 ± 0.029
- GGAGACGAUACUUUACAACCUAGUACCUCA — higher, 0.413 ± 0.057
- GGAGACCUAACAAUACAACCUAGUACCUCA — lower, 0.0122 ± 0.0065
- GCUCUGGAAACUAUACAAGCUACUACCUCA — higher, 1.4 ± 0.074
- GGAGACCUAUGUAUACAGCCUACUACCUCA — lower, 0.0168 ± 0.0042
- GGAGACCUAUGUAUACAACCCACUACCUCA — within error, 0.0425 ± 0.0067
- GGAGUGGAUACUAUACAACCUAGUACCACA — lower, < 0.0001
- GGAGACGAUACUAUACAACGUACUACCUCA — higher, 0.788 ± 0.037
- GGAGACCUAACUAUUCAACCUACAACCUCA — higher, 0.102 ± 0.024
- GGAGACCUUAGUAUACAAGCUACUACCUCA — higher, 0.261 ± 0.03
- GGAGACCAAUGUAUACAACCUACUACCUCA — higher, 0.204 ± 0.027
- GCUCUGGAAACUAUACAACCUACUACCUCA — higher, 1.92 ± 0.11
- GGAGACGUUACUAUACAACCUACUACCUGA — higher, 0.573 ± 0.07
- GGAGACCUAUGUAUACAACAUACUACCUCA — lower, 0.0122 ± 0.003
- GGAGACGAUACAUAUACAACCUACUACCUCA — higher, 1.32 ± 0.084
- GGAGACCUUACUCAUACAACCUACUACCUCA — higher, 0.437 ± 0.049
